These results are taken from a collection of fitness landscapes (doi:10.1016/j.celrep.2020.107928).

The chains are these.
B1: Caulobacter ParB omega fusion; a variant is named by its letters at X, in order, B8GW30 (parent)
chain: MESVVVGEPGMSEGRRGLGRGLSALLGEVDAAPAQAPGEQLGGSREAPIEILQRNPDQPRRTFREEDLEDLSNSIREKGVLQPILVRPSPDTAGEYQIVAGERAWRAAQRAGLKTVPIMVRELDDLAVLEIGIIENVQRADLNVLEEALSYKVLMEKFERTQENIAQTIGKSXSHVANXMRLLXLPDEVQSYLVSGELTAXHARAIAAAADPVALAKQIIEGGLSVRETEALARKAPNLSAGKSKGGRPPRVKDTDTQALESDLSSVLGLDVSIDHRGSTGTLTITYATLEQLDDLCNRLTRGI

Whole data set: some 81,000 sequences, median “one-hybrid fitness for binding parS DNA” near -0.17, cut for the highest 2% near 0.51. Some of the results follow.

The experiment covers variants of B1. The experiment in a line: one-hybrid fitness for binding parS DNA (scaled: cognate 1, non-cognate 0); higher = stronger binding. The settings on record: with parS DNA site. In a few lines:
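Fitness here means the log change in variant-to-wild-type read ratio between plasmids sequenced before and after selection. That scale was set so cognate equals 1 and non-cognate equals 0. The selection was a bacterial one-hybrid screen of Caulobacter ParB libraries, four specificity codons randomised, in E. coli USO carrying a HIS3 reporter with the site 19 bp from the promoter, grown 48 hours at 37°C on M9-minus-histidine with 0.1 mM IPTG and 5 mM 3-AT.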
Take PIVV: the “one-hybrid fitness for binding parS DNA” value is no more than 0.2. Regarding AGEF, the “one-hybrid fitness for binding parS DNA” value is no more than 0.2.

For the variant TTFW, the “one-hybrid fitness for binding parS DNA” value was no more than 0.2. In the case of YSHM it was no more than 0.2; in that of KDGR, no more than 0.2; in that of VSDG, no more than 0.2. ATCM: the “one-hybrid fitness for binding parS DNA” value is no more than 0.2. In the case of MFVY, the “one-hybrid fitness for binding parS DNA” value is no more than 0.2. Regarding SLPV, the “one-hybrid fitness for binding parS DNA” value is no more than 0.2. In the case of NRTV, the “one-hybrid fitness for binding parS DNA” value was no more than 0.2. With IAAG, the “one-hybrid fitness for binding parS DNA” value was no more than 0.2. For HRKD, the “one-hybrid fitness for binding parS DNA” value is no more than 0.2. Regarding SKNP, the “one-hybrid fitness for binding parS DNA” value was no more than 0.2. Under HMKA stands no more than 0.2; under LHNI, no more than 0.2. TCSP: the “one-hybrid fitness for binding parS DNA” value is no more than 0.2. As for DDTY, the “one-hybrid fitness for binding parS DNA” value was no more than 0.2. As to MTQS, the “one-hybrid fitness for binding parS DNA” value was no more than 0.2. On to QPYG, for which the “one-hybrid fitness for binding parS DNA” value is no more than 0.2. Regarding SVAW, the “one-hybrid fitness for binding parS DNA” value is no more than 0.2.

For the variant RCGK, the “one-hybrid fitness for binding parS DNA” value is no more than 0.2.

Consider CVKV, for which the “one-hybrid fitness for binding parS DNA” value was no more than 0.2. In the case of ELHT it was no more than 0.2; in that of IDLL, no more than 0.2; in that of WWNR, no more than 0.2. Take GKCG: the “one-hybrid fitness for binding parS DNA” value was no more than 0.2. In the case of NTNI, the “one-hybrid fitness for binding parS DNA” value was no more than 0.2. On to AGVL, for which the “one-hybrid fitness for binding parS DNA” value is no more than 0.2. QCMM: the “one-hybrid fitness for binding parS DNA” value was no more than 0.2.

Consider APYW, for which the “one-hybrid fitness for binding parS DNA” value is no more than 0.2. As for HRHC, the “one-hybrid fitness for binding parS DNA” value came out at 0.283. For RPRC, the “one-hybrid fitness for binding parS DNA” value is no more than 0.2.

For CYTS, the “one-hybrid fitness for binding parS DNA” value was no more than 0.2. KMNT: the “one-hybrid fitness for binding parS DNA” value is no more than 0.2.

Turning to DETF, the “one-hybrid fitness for binding parS DNA” value is no more than 0.2. Turning to IDQS, the “one-hybrid fitness for binding parS DNA” value was no more than 0.2. Under CHRK stands no more than 0.2; under PKPN, no more than 0.2. In the case of SKCI, the “one-hybrid fitness for binding parS DNA” value was no more than 0.2.

With SFQS, the “one-hybrid fitness for binding parS DNA” value is no more than 0.2.

Take LEWR: the “one-hybrid fitness for binding parS DNA” value was no more than 0.2.

HGTL: the “one-hybrid fitness for binding parS DNA” value is no more than 0.2. Turning to SDGL, the “one-hybrid fitness for binding parS DNA” value was no more than 0.2. Under AEVR stands no more than 0.2; under YGRK, no more than 0.2; under MLKQ, no more than 0.2. In the case of PATG it was no more than 0.2; in that of HQRH, no more than 0.2; in that of SIYR, no more than 0.2.

As to HDLE, the “one-hybrid fitness for binding parS DNA” value was no more than 0.2.

For NQTN, the “one-hybrid fitness for binding parS DNA” value is no more than 0.2. In the case of EGYT it was no more than 0.2. In the case of TDAQ, the “one-hybrid fitness for binding parS DNA” value is no more than 0.2. For KQSC, the “one-hybrid fitness for binding parS DNA” value is no more than 0.2. Consider DSTL, for which the “one-hybrid fitness for binding parS DNA” value was no more than 0.2.

For the variant RETL, the “one-hybrid fitness for binding parS DNA” value was no more than 0.2. For RILA, the “one-hybrid fitness for binding parS DNA” value came to 0.576. As for SGVY, the “one-hybrid fitness for binding parS DNA” value is no more than 0.2. Turning to GKVG, the “one-hybrid fitness for binding parS DNA” value is no more than 0.2. TSQT: the “one-hybrid fitness for binding parS DNA” value is no more than 0.2. In the case of TVYM it was no more than 0.2. As to HEPF, the “one-hybrid fitness for binding parS DNA” value is no more than 0.2. As to TCGR, the “one-hybrid fitness for binding parS DNA” value was no more than 0.2. AGRA: the “one-hybrid fitness for binding parS DNA” value is no more than 0.2.

Regarding GEVW, the “one-hybrid fitness for binding parS DNA” value is no more than 0.2. Under RYTT stands 0.884. Regarding AQKT, the “one-hybrid fitness for binding parS DNA” value is no more than 0.2. With DMTG, the “one-hybrid fitness for binding parS DNA” value was no more than 0.2.

As to PWNR, the “one-hybrid fitness for binding parS DNA” value was no more than 0.2.

With LVMR, the “one-hybrid fitness for binding parS DNA” value was no more than 0.2. On to CQVE, for which the “one-hybrid fitness for binding parS DNA” value was no more than 0.2. NNHT: the “one-hybrid fitness for binding parS DNA” value is no more than 0.2. Regarding KPPC, the “one-hybrid fitness for binding parS DNA” value was no more than 0.2. For the variant PNNY, the “one-hybrid fitness for binding parS DNA” value is no more than 0.2. Under TSKH stands no more than 0.2; under IKTK, no more than 0.2.
